Patent US9486506B2 (Novo Nordisk A/S, priority 2011, dated 2016)
At least one structure is not confirmed: it was looked up by name or label, or the drawing left a doubt. Numbered stars: 1 amine (or outer) side, 2 acyl side, 3 side chain; on linkers, the order of the positions; unused ones are H or OH. Side chains are listed from the residue outwards. Peptide text beside a SMILES is read from it. * marks the point of attachment. C20 diacid = O=C(O)CCCCCCCCCCCCCCCCCCC(=O)*; C18 diacid = O=C(O)CCCCCCCCCCCCCCCCC(=O)*; C16 diacid = O=C(O)CCCCCCCCCCCCCCC(=O)*; γGlu = O=C(O)[C@H](CCC(=O)[*:2])N[*:1]; AEEA = NCCOCCOCC(=O)O

Assay: Assay (II) ThT fibrillation assay for physical stability
Format: physicochemical
Conditions: pH 7.5

| Compound | ThT assay [Lagtime] [h] |
| --- | --- |
| CC(C)C[C@H](NC(=O)[C@H](Cc1ccc(O)cc1)NC(=O)[C@H](CCCNC(=N)N)NC(=O)[C@H](CO)NC(=O)[C@H](Cc1ccc(O)cc1)NC(=O)[C@H](CC(=O)O)NC(=O)[C@H](CO)NC(=O)[C@@H](NC(=O)[C@H](Cc1ccccc1)NC(=O)[C@@H](NC(=O)CNC(=O)[C@H](CCC(N)=O)NC(=O)[C@H](CO)NC(=O)[C@@H](N)Cc1c[nH]cn1)[C@@H](C)O)[C@@H](C)O)C(=O)N[C@@H](CC(=O)O)C(=O)N[C@@H](C)C(=O)N[C@@H](CCCNC(=N)N)C(=O)N[C@@H](CCCNC(=N)N)C(=O)N[C@@H](C)C(=O)N[C@@H](CCC(N)=O)C(=O)N[C@@H](CC(=O)O)C(=O)N[C@@H](Cc1ccccc1)C(=O)N[C@H](C(=O)N[C@@H](CCCCNC(=O)CC[C@H](NC(=O)CC[C@H](NC(=O)CC[C@H](NC(=O)CC[C@H](NC(=O)CCCCCCCCCCCCCCC(=O)O)C(=O)O)C(=O)O)C(=O)O)C(=O)O)C(=O)N[C@@H](Cc1c[nH]c2ccccc12)C(=O)N[C@@H](CC(C)C)C(=O)N[C@@H](CC(C)C)C(=O)N[C@@H](CO)C(=O)N[C@H](C(=O)O)[C@@H](C)O)C(C)C [Example 73, N^ε24-[(4S)-4-carboxy-4-[[(4S)-4-carboxy-4-[[(4S)-4-carboxy-4-[[(4S)-4-carboxy-4-(15-carboxypentadecanoylamino)butanoyl]amino]butanoyl]amino]butanoyl]amino]butanoyl]-[Arg12,Ala16,Lys24,Leu27,Ser28]-Glucagon] (H-HSQGTFTSDYSRYLDARRAQDFVK([γGlu-γGlu-γGlu-γGlu-C16 diacid])WLLST-OH) | 0 |
| CC(C)C[C@H](NC(=O)[C@H](CC(N)=O)NC(=O)[C@H](CC(C)C)NC(=O)[C@H](CC(C)C)NC(=O)[C@H](Cc1c[nH]c2ccccc12)NC(=O)[C@H](CCCCNC(=O)CC[C@H](NC(=O)COCCOCCNC(=O)COCCOCCNC(=O)CC[C@H](NC(=O)CCCCCCCCCCCCCCCCC(=O)O)C(=O)O)C(=O)O)NC(=O)[C@@H](NC(=O)[C@H](Cc1ccccc1)NC(=O)[C@H](CC(=O)O)NC(=O)[C@H](CCC(N)=O)NC(=O)[C@H](C)NC(=O)[C@H](CCCNC(=N)N)NC(=O)[C@H](CCCNC(=N)N)NC(=O)[C@H](CO)NC(=O)[C@H](CCC(=O)O)NC(=O)[C@H](CC(C)C)NC(=O)[C@H](Cc1ccc(O)cc1)NC(=O)[C@H](CCCCN)NC(=O)[C@H](CO)NC(=O)[C@H](Cc1ccc(O)cc1)NC(=O)[C@H](CC(=O)O)NC(=O)[C@H](CO)NC(=O)[C@@H](NC(=O)[C@H](Cc1ccccc1)NC(=O)[C@@H](NC(=O)CNC(=O)[C@H](CCC(N)=O)NC(=O)[C@H](CO)NC(=O)[C@@H](N)Cc1c[nH]cn1)[C@@H](C)O)[C@@H](C)O)C(C)C)C(=O)O [Example 34, N^ε24-[(4S)-4-carboxy-4-[[2-[2-[2-[[2-[2-[2-[[(4S)-4-carboxy-4-(17-carboxyheptadecanoylamino)butanoyl]amino]ethoxy]ethoxy]acetyl]amino]ethoxy]ethoxy]acetyl]amino]butanoyl]-[Glu15,Lys24,Leu27,Leu29]-Glucagon] | 45 |
| CC(C)C[C@H](NC(=O)[C@H](Cc1ccc(O)cc1)NC(=O)[C@H](CCCCN)NC(=O)[C@H](CO)NC(=O)[C@H](Cc1ccc(O)cc1)NC(=O)[C@H](CC(=O)O)NC(=O)[C@H](CO)NC(=O)[C@@H](NC(=O)[C@H](Cc1ccccc1)NC(=O)[C@@H](NC(=O)CNC(=O)[C@H](CCC(N)=O)NC(=O)[C@H](CO)NC(=O)[C@@H](N)Cc1c[nH]cn1)[C@@H](C)O)[C@@H](C)O)C(=O)N[C@@H](CC(=O)O)C(=O)N[C@@H](CCC(=O)O)C(=O)N[C@@H](CCCNC(=N)N)C(=O)N[C@@H](CCCNC(=N)N)C(=O)N[C@@H](C)C(=O)N[C@@H](CCC(N)=O)C(=O)N[C@@H](CC(=O)O)C(=O)N[C@@H](Cc1ccccc1)C(=O)N[C@H](C(=O)N[C@@H](CCCCNC(=O)CC[C@H](NC(=O)CC[C@H](NC(=O)COCCOCCNC(=O)COCCOCCNC(=O)CC[C@H](NC(=O)CCCCCCCCCCCCCCC(=O)O)C(=O)O)C(=O)O)C(=O)O)C(=O)N[C@@H](Cc1c[nH]c2ccccc12)C(=O)N[C@@H](CC(C)C)C(=O)N[C@@H](CC(C)C)C(=O)N[C@@H](CO)C(=O)N[C@H](C(=O)O)[C@@H](C)O)C(C)C [Example 93, N^ε24-[(4S)-4-carboxy-4-[[(4S)-4-carboxy-4-[[2-[2-[2-[[2-[2-[2-[[(4S)-4-carboxy-4-(15-carboxypentadecanoylamino)butanoyl]amino]ethoxy]ethoxy]acetyl]amino]ethoxy]ethoxy]acetyl]amino]butanoyl]amino]butanoyl]-[Glu16,Lys24,Leu27,Ser28]-Glucagon] (H-HSQGTFTSDYSKYLDERRAQDFVK([γGlu-γGlu-AEEA-AEEA-γGlu-C16 diacid])WLLST-OH; N-terminus and C-terminus assumed) | 45 |
| CC(C)C[C@H](NC(=O)[C@H](CC(=O)O)NC(=O)[C@H](CC(C)C)NC(=O)[C@H](Cc1ccc(O)cc1)NC(=O)[C@H](CCCNC(=N)N)NC(=O)[C@H](CO)NC(=O)[C@H](Cc1ccc(O)cc1)NC(=O)[C@H](CC(=O)O)NC(=O)[C@H](CO)NC(=O)[C@@H](NC(=O)[C@H](Cc1ccccc1)NC(=O)[C@@H](NC(=O)CNC(=O)[C@H](CCC(N)=O)NC(=O)[C@H](CO)NC(=O)[C@@H](N)Cc1c[nH]cn1)[C@@H](C)O)[C@@H](C)O)C(=O)N[C@@H](CCCNC(=N)N)C(=O)N[C@@H](CCCNC(=N)N)C(=O)N[C@@H](C)C(=O)N[C@@H](CCC(N)=O)C(=O)N[C@@H](CC(=O)O)C(=O)N[C@@H](Cc1ccccc1)C(=O)N[C@H](C(=O)N[C@@H](CCCCNC(=O)CC[C@H](NC(=O)CC[C@H](NC(=O)COCCOCCNC(=O)COCCOCCNC(=O)CC[C@H](NC(=O)CCCCCCCCCCCCCCCCCCC(=O)O)C(=O)O)C(=O)O)C(=O)O)C(=O)N[C@@H](Cc1c[nH]c2ccccc12)C(=O)N[C@@H](CC(C)C)C(=O)N[C@@H](CC(C)C)C(=O)N[C@@H](CO)C(=O)N[C@H](C(=O)O)[C@@H](C)O)C(C)C [Example 26, N^ε24-[(4S)-4-carboxy-4-[[(4S)-4-carboxy-4-[[2-[2-[2-[[2-[2-[2-[[(4S)-4-carboxy-4-(19-carboxynonadecanoylamino)butanoyl]amino]ethoxy]ethoxy]acetyl]amino]ethoxy]ethoxy]acetyl]amino]butanoyl]amino]butanoyl]-[Arg^12,Leu^16,Lys^24,Leu^27,Ser^28]-Glucagon] (H-HSQGTFTSDYSRYLDLRRAQDFVK([γGlu-γGlu-AEEA-AEEA-γGlu-C20 diacid])WLLST-OH) | 8 |
| CC(C)C[C@H](NC(=O)[C@H](Cc1c[nH]c2ccccc12)NC(=O)[C@H](CCCCNC(=O)COCCOCCNC(=O)COCCOCCNC(=O)CC[C@H](NC(=O)CC[C@H](NC(=O)CC[C@H](NC(=O)CCCCCCCCCCCCCCCCC(=O)O)C(=O)O)C(=O)O)C(=O)O)NC(=O)[C@@H](NC(=O)[C@H](Cc1ccccc1)NC(=O)[C@H](CCC(=O)O)NC(=O)[C@H](CCC(N)=O)NC(=O)[C@H](C)NC(=O)[C@H](CCCNC(=N)N)NC(=O)[C@H](CCCNC(=N)N)NC(=O)[C@@H](NC(=O)[C@H](CC(=O)O)NC(=O)[C@H](CC(C)C)NC(=O)[C@H](Cc1ccc(O)cc1)NC(=O)[C@H](CCCCN)NC(=O)[C@H](CO)NC(=O)[C@@H](NC(=O)[C@H](CC(=O)O)NC(=O)[C@H](CO)NC(=O)[C@@H](NC(=O)[C@H](Cc1ccccc1)NC(=O)[C@@H](NC(=O)CNC(=O)[C@H](CCC(N)=O)NC(=O)[C@H](CO)NC(=O)[C@@H](N)Cc1c[nH]cn1)[C@@H](C)O)[C@@H](C)O)C(C)C)[C@@H](C)O)C(C)C)C(=O)N[C@@H](CC(C)C)C(=O)N[C@@H](CO)C(=O)N[C@H](C(=O)O)[C@@H](C)O [Example 62, N^ε24-[2-[2-[2-[[2-[2-[2-[[(4S)-4-carboxy-4-[[(4S)-4-carboxy-4-[[(4S)-4-carboxy-4-(17-carboxyheptadecanoylamino)butanoyl]amino]butanoyl]amino]butanoyl]amino]ethoxy]ethoxy]acetyl]amino]ethoxy]ethoxy]acetyl]-[Val10,Thr16,Glu21,Lys24,Leu27,Ser28]-Glucagon] (H-HSQGTFTSDVSKYLDTRRAQEFVK([AEEA-AEEA-γGlu-γGlu-γGlu-C18 diacid])WLLST-OH) | 45 |
| CC(C)C[C@H](NC(=O)[C@H](Cc1ccc(O)cc1)NC(=O)[C@H](CCCCN)NC(=O)[C@H](CO)NC(=O)[C@H](Cc1ccc(O)cc1)NC(=O)[C@H](CC(=O)O)NC(=O)[C@H](CO)NC(=O)[C@@H](NC(=O)[C@H](Cc1ccccc1)NC(=O)[C@@H](NC(=O)CNC(=O)[C@H](Cc1c[nH]cn1)NC(=O)[C@H](CO)NC(=O)[C@@H](N)Cc1c[nH]cn1)[C@@H](C)O)[C@@H](C)O)C(=O)N[C@@H](CC(=O)O)C(=O)N[C@@H](CO)C(=O)N[C@@H](CCCCN)C(=O)N[C@@H](CCCNC(=N)N)C(=O)N[C@@H](C)C(=O)N[C@@H](CCC(N)=O)C(=O)N[C@@H](CCC(=O)O)C(=O)N[C@@H](Cc1ccccc1)C(=O)N[C@H](C(=O)N[C@@H](CCCCNC(=O)CC[C@H](NC(=O)CC[C@H](NC(=O)COCCOCCNC(=O)CC[C@H](NC(=O)CCCCCCCCCCCCCCCCC(=O)O)C(=O)O)C(=O)O)C(=O)O)C(=O)N[C@@H](Cc1c[nH]c2ccccc12)C(=O)N[C@@H](CC(C)C)C(=O)N[C@@H](CC(C)C)C(=O)N[C@@H](CO)C(=O)N[C@H](C(=O)O)[C@@H](C)O)C(C)C [Example 6, N^ε24-[(4S)-4-carboxy-4-[[(4S)-4-carboxy-4-[[2-[2-[2-[[(4S)-4-carboxy-4-(17-carboxyheptadecanoylamino)butanoyl]amino]ethoxy]ethoxy]acetyl]amino]butanoyl]amino]butanoyl]-[His^3,Lys^17,Glu^21,Lys^24,Leu^27,Ser^28]-Glucagon] (H-HSHGTFTSDYSKYLDSKRAQEFVK([γGlu-γGlu-AEEA-γGlu-C18 diacid])WLLST-OH) | 45 |
